Among all 43,000 compounds or so, about 200 (0.47%) were called active. Not shown: some 12% with an inconclusive outcome. Calls come from the whole dose curve; as a rule, active = well fitted cell-killing curve with a large enough effect; inconclusive = small, poorly fitted or top-dose-only effect, or effect the other way; inactive = flat fitted curve, though single readings scatter. This is one part of the list.
% is set by controls: 0 for no effect and ±100 for the full control effect.

The assay in a line: Cell viability qHTS assay in S16 Pmp22-F2sN cells. Note: nearly all actives have a fitted effect of over 65% in size. To be noted: S16 Pmp22-F2sN Schwann cells viability, CellTiter-Glo, 24 h; series mostly up to 57.5 µM; activity change, negative = cytotoxicity: at the top concentration. The gist of the method:
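S16 Pmp22-F2sN Schwann cells (500-1,000/well) in phenol-red-free DMEM with 10% FBS received 23 nL compound by pin tool for 24 h at 37 °C. Viability was then read as CellTiter-Glo luminescence after 15 min at room temperature.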
A general note: In qHTS, concentration-response curves come from the screen itself.
For the compound `O=C(COCc1cc(-c2cccs2)on1)N1CCN(c2cccc(Cl)c2)CC1`, the “activity change, negative = cytotoxicity” value was inactive: -18.3%. With `CCOc1ccc(NC(=O)c2sc3nc4c(c(-c5ccc(OC)cc5)c3c2N)C(=O)CC(C)(C)C4)cc1`, the “activity change, negative = cytotoxicity” value was inactive: 14%. With `CCOc1ccc(-n2cc(-c3ccccc3)c3c(N4CCN(c5ccccc5OC)CC4)ncnc32)cc1`, the “activity change, negative = cytotoxicity” value was inactive: -0.234%. In the case of `COC(=O)c1c(NC(=O)/C(C#N)=C/c2ccccc2)sc2c1CCC2`, the “activity change, negative = cytotoxicity” value is inactive: 3.6%.

Consider `CCCCN(CC)C(=O)CSc1c2c(nc3ccc(Cl)cc13)CCCC2`, for which the “activity change, negative = cytotoxicity” value is inactive: 5.05%. Under `Cc1oc(-c2ccc(Cl)cc2)nc1CSc1nc2ncccc2[nH]1` stands inactive: 5.55%. As for `O=C(Nc1ccc2oc(-c3ccncc3)nc2c1)c1ccccc1Cl`, the “activity change, negative = cytotoxicity” value was inactive: -0.296%.

In the case of `COc1cccc(NC(=O)c2ccc(-c3nc(COc4ccccc4)c(C)o3)cc2)c1`, the “activity change, negative = cytotoxicity” value is inactive: 5.49%. Then `O=C(OCc1cc(=O)n2nc(C3CCCCC3)sc2n1)c1ccc(F)cc1`, with inactive: 1.38%. Under `CCOCCCNC(=O)CN1C(=O)COc2ccc(S(=O)(=O)N3CCCC3)cc21` stands inactive: -1.1%; under `COc1ccccc1Nc1cc(C(=O)NC2CCC(C)CC2)c2ccccc2n1` (centres undefined), inactive: -14%; under `CCC(=O)N1c2ccccc2CC1C(=O)NCc1ccccc1Cl` (centres undefined), inactive: 9.78%. Turning to `Cc1cccc(NC(=O)CCn2cnnn2)c1C`, the “activity change, negative = cytotoxicity” value is inactive: -3.67%.

Take `COc1cc(OC)c(NC(=O)CCc2c(C)nc3ncnn3c2C)cc1Cl`: the “activity change, negative = cytotoxicity” value was inactive: 10.5%.

As for `COc1ccc(-c2nc(CSCC(=O)NCCc3ccccc3)c(C)o2)cc1`, the “activity change, negative = cytotoxicity” value was inactive: -25.5%.

Take `CN(Cc1ccccc1)c1ccc(-c2nc(-c3ccccn3)no2)cc1[N+](=O)[O-]`: the “activity change, negative = cytotoxicity” value is inactive: 2.78%. Regarding `COc1cccc(N2CCN(C(=O)c3cc4cc5cc(C)ccc5nc4s3)CC2)c1`, the “activity change, negative = cytotoxicity” value was inactive: -3.38%. Then `COc1ccc(Cn2cc(S(=O)(=O)c3ccc(Cl)cc3)c(=O)c3cc4c(cc32)OCO4)cc1`, with inactive: 2.19%. Under `O=C(NC1(C(F)(F)F)C(=O)Nc2c1c(=O)[nH]c(=O)n2-c1ccc(Cl)cc1)c1ccccc1F` (centres undefined) stands inactive: 1.8%; under `CNC(=O)C1CCC(Cn2c(=O)c3sccc3n(CC(=O)NCc3ccc(OC)cc3)c2=O)CC1` (centres undefined), inactive: 1.07%; under `COc1ccccc1NC(=O)c1c(NC(=O)COc2ccccc2)sc2c1CCCCC2`, inactive: 19.7%. `COc1ccc2cc(-c3nc(Cl)c4c5c(sc4n3)CC(C)CC5)c(=O)oc2c1` (centres undefined): the “activity change, negative = cytotoxicity” value was inactive: 12.6%. For the compound `O=C(Cn1c(=O)n(-c2cccc(Cl)c2)c(=O)c2sc3ccccc3c21)NC1CCCCC1`, the “activity change, negative = cytotoxicity” value was inactive: 15.2%. Regarding `Cc1ccc(OCC(=O)Nc2cccc(-c3nc4ccccc4o3)c2C)cc1C`, the “activity change, negative = cytotoxicity” value is inactive: -3.8%. Then `Cc1cc2nc(-c3cccc(NC(=O)C(C)C)c3C)oc2cc1C`, with inactive: 2.53%; and `O=C(c1cc(-c2ccccc2O)on1)N1CCCCC1`, with inactive: 3.9%; and `O=C(c1ccc2c(c1)N(Cc1ccccc1F)C(=O)c1ccccc1S2(=O)=O)N1CCN(c2ccccc2F)CC1`, with inactive: -2.84%. Under `CCOc1ccc(C(=O)Nc2ccc3nn(-c4ccc(OC)c(Cl)c4)nc3c2)cc1` stands inactive: 5.73%; under `CCN(CC)C(=O)c1sc2c(c1C)c(=O)n(CCc1ccccc1)c(=O)n2Cc1ccc(F)cc1Cl`, inactive: 4.66%. For `CCc1ccc(O)c(C(=O)c2cnc3cc(-c4ccc(C)cc4)nn3c2)c1`, the “activity change, negative = cytotoxicity” value is inactive: 17.4%.

In the case of `N#Cc1c(C(F)(F)F)cc(-c2cccs2)nc1SCC(=O)Nc1ccccc1F`, the “activity change, negative = cytotoxicity” value is inactive: 16%. For the compound `Cc1ccc(Cl)cc1NC(=O)Cn1c(=O)n(Cc2ccccc2)c(=O)c2oc3ccccc3c21`, the “activity change, negative = cytotoxicity” value was inactive: 11.7%. Then `Cc1ccc(CNC(=O)CCc2c(C)nc3nc(C)nn3c2C)cc1`, with inactive: -13%. Under `Cc1ccc(OCC(=O)Nc2cccc(OCc3cc(=O)n4cccc(C)c4n3)c2)cc1C` stands inactive: -6.95%. For `Cc1ccc(CCNC(=O)CCCn2c(=O)c3ccccc3n(Cc3ccccc3C#N)c2=O)cc1`, the “activity change, negative = cytotoxicity” value was inactive: 7.91%.

On to `CCn1cc2c(n1)-c1c(oc(C(=O)Nc3cccc(C)c3C)c1C)CC2`, for which the “activity change, negative = cytotoxicity” value is inactive: 6.92%.

`CCOc1ccc(-c2cc(C(=O)NCc3ccccc3Cl)c3ccccc3n2)cc1`: the “activity change, negative = cytotoxicity” value was inactive: -6.06%. `CCn1cc(S(=O)(=O)c2ccccc2)c(=O)c2cc(F)c(N3CCCC3)cc21`: the “activity change, negative = cytotoxicity” value is inactive: -20%.

Regarding `Cc1cc(C)cc(NS(=O)(=O)c2ccc3[nH]cc(C(=O)NC4CCCCC4)c(=O)c3c2)c1`, the “activity change, negative = cytotoxicity” value is inactive: -29.7%. As for `COCCCNC(=O)c1ccc(-n2c(-c3ccccc3)cc3c2CCCC3)cc1`, the “activity change, negative = cytotoxicity” value is inactive: 2.06%. In the case of `COc1cccc(-c2nnc(SCC(=O)N3CCC(C)CC3)o2)c1`, the “activity change, negative = cytotoxicity” value is inactive: 1.82%. On to `O=C(OCc1cc(=O)n2nc(C3CCCCC3)sc2n1)c1ccccc1Cl`, for which the “activity change, negative = cytotoxicity” value is inactive: 10.8%. For the compound `Cc1ccc(NC(=O)CCCn2c(=O)c3cccn3c3ccccc32)cc1C`, the “activity change, negative = cytotoxicity” value was inactive: 19.4%.

`CC(C)CC(=O)n1nc(-c2cccnc2)nc1NCc1ccc(F)cc1`: the “activity change, negative = cytotoxicity” value was inactive: -0.616%. Regarding `COc1ccc(OCC(=O)OCc2cc(=O)n3nc(-c4cccs4)sc3n2)cc1`, the “activity change, negative = cytotoxicity” value is inactive: 16%. Under `Cc1cc(C)n(-c2nc3ccccc3nc2Nc2ccc(Cl)c(C(=O)OC(C)C)c2)n1` stands inactive: 8.88%.

Consider `CC(=O)c1cccc(NC(=O)C2CCCN(C(=O)c3cnn(-c4ccccc4)c3-n3cccc3)C2)c1` (centres undefined), for which the “activity change, negative = cytotoxicity” value was inactive: -27.8%. Under `Cc1cccc(N2CCN(S(=O)(=O)c3cc(Cl)ccc3Cl)CC2)c1C` stands inactive: 20.1%; under `Cn1c2ccccc2c2cnn(CC(=O)N3CCN(c4cccc(C(F)(F)F)c4)CC3)c(=O)c21`, inactive: 21%.

For the origin of these results see PubChem BioAssay AID1508642 (National Center for Advancing Translational Sciences (NCATS), 2021).
